Experiments:
hPILRB = biological target: T1, hPILRB (Homo sapiens, UniProt Q9UKJ0); assay: SPR (Biacore 8K) binding affinity to hPILRB; conditions: Table 6
T1 construct: injections of serial 3-fold dilutions of recombinant ECD reagents
Method: (§1) The binding affinities of anti-PILRA antibodies to hPILRA, hPILRB, and cynoPILRA extracellular domain (ECD) were measured by SPR using a Biacore 8K instrument (Table 2). Antibodies were captured on Biacore™ Series S CM5 sensor chips immobilized with mouse anti-human Fab (human Fab capture kit from GE Healthcare) followed by injections of serial 3-fold dilutions of recombinant ECD reagents at a flow rate of 30 μL/min. Each sample was analyzed using a 3-minute association followed by a 10-minute dissociation. After each injection, the sensor chip was regenerated using a 5 0 mM glycine pH2.0 regeneration buffer. A 1:1 Languir model of simultaneous fitting of kon and koff was used for kinetics analysis.
(§2) The binding affinities of four reference anti-PILRA antibodies to hPILRA, hPILRB, and cynoPILRA were measured by SPR using a Biacore 8K instrument (described in Example 2). The EC50 binding values of the four reference antibodies were also measured in HEK293 cells expressing hPILRA G78.
(§3) Further, humanized antibody clones 36-39 were generated. The binding affinities of these clones for hPILRA G78, hPILRA R78, hPILRB, and cyno PILRA were measured by SPR (Table 8).

cynoPILRA = assay: SPR (Biacore 8K) binding affinity to cynoPILRA; parameters: species or system cynomolgus monkey; conditions: Table 6
Method: as §1, §2, §3

T1 sequence (Q9UKJ0 with tags, fused parts or gaps): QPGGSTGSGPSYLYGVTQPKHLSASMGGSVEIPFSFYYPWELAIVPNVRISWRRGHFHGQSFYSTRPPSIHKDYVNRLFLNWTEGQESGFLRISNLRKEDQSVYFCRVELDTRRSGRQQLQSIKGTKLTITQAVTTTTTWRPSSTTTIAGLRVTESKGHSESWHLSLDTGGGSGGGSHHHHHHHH

Molecule | hPILRB KD (hPILRB) | cynoPILRA KD (cynoPILRA)
Reference Antibody #4: reference anti-PILRA antibody; heavy and light chain sequences among SEQ ID NOS:128-135 (antibody) heavy: QVTLKESGPGILQPSQTLSLTCSFSGFSLTTFGMGVGWIRQPSGKGLEWLAHIWWDDDKYYNPALKSRLTISKDISKNQVFLKIANVDTADTATYYCARIEDYGNPFDYWGQGTTLTVSSASTKGPSVFPLAPSSKSTSGGTAALGCLVKDYFPEPVTVSWNSGALTSGVHTFPAVLQSSGLYSLSSVVTVPSSSLGTQTYICNVNHKPSNTKVDKKV[left out - human IgG1 Fc with changes] light: DIQMNQSPSSLSASLGDTITITCHASQNIHVWLSWYQQKPGNIPKLLIYKASNLHTGVPSRFSGSGSGTGFTLTISSLQPEDIATYYCQQGQSYPLTFGAGTKLELKRTVAAPSVFIFPPSDEQLKSGTASVVCLLNNFYPREAKVQWKVDNALQSGNSQESVTEQDSKDSTYSLSSTLTLSKADYEKHKVYACEVTHQGLSSPVTKSFNRGEC | No binding | No binding
Reference Antibody #1: reference anti-PILRA antibody; heavy and light chain sequences among SEQ ID NOS:128-135 (antibody) heavy: QVTLQESGPGILQPSQTLSLTCSFSGFSLSTFGMGVGWIRQPSGKGLEWLAHIWWDDDKYYNPALKSRLTISKDTSKNQVFLKIASVDTADIATYYCARVEDYGNPFDYWGQGTTLTVSSASTKGPSVFPLAPSSKSTSGGTAALGCLVKDYFPEPVTVSWNSGALTSGVHTFPAVLQSSGLYSLSSVVTVPSSSLGTQTYICNVNHKPSNTKVDKKV[left out - human IgG1 Fc with changes] light: DIQMNQSPSSLSASLGDTITITCHASQNIHVWLNWYQQKPGNIPKLLIYKASNLHTGVPSRFSGSGSGTGFTVTISSLQPEDIATYYCQQGQSYPLTFGAGTKLELKRTVAAPSVFIFPPSDEQLKSGTASVVCLLNNFYPREAKVQWKVDNALQSGNSQESVTEQDSKDSTYSLSSTLTLSKADYEKHKVYACEVTHQGLSSPVTKSFNRGEC | No binding | No binding

Source: patent US20260109763A1, “ANTI-PILRA ANTIBODIES, USES THEREOF, AND RELATED METHODS AND REAGENTS” (DENALI THERAPEUTICS INC., priority 2021, published 2026)
